# Data published in the supplement of paper PMC10441789.
# The other results are listed elsewhere or left out. Antibody binding of pooled human sera (four to six donors per pool; dilution not stated) to peptides of the Trypanosoma cruzi antigen TSSA on microarrays. Quantile-normalised fluorescence in arbitrary units, mean of duplicate arrays; higher = more binding. No active / inactive call. The uninfected pools are read here as the healthy donors of the same country. The strongest signals lie near the top of the scale (about 60,000).
# Assays:
# Assay in all cases: antibody binding signal (normalised fluorescence) (arbitrary fluorescence units); higher = stronger serum antibody binding to peptide
# [1] = system: pooled sera of chronic Chagas disease patients, Argentina
# Procedure: (§1)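 Microarray of 15-residue peptides over residues 30-55 of Trypanosoma cruzi TSSAII, each with 1 to 10 substitutions at naturally variable positions, probed with one serum pool per country.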
# [2] = system: pooled sera of chronic Chagas disease patients, Bolivia
# Procedure: as §1
# [3] = system: pooled sera of chronic Chagas disease patients, Brazil
# Procedure: as §1
# [4] = system: pooled sera of chronic Chagas disease patients, Colombia
# Procedure: as §1
# [5] = system: pooled sera of chronic Chagas disease patients, Mexico
# Procedure: as §1
# [6] = system: pooled sera of chronic Chagas disease patients, USA
# Procedure: as §1
# [7] = system: pooled sera of uninfected people, Argentina
# Procedure: as §1
# [8] = system: pooled sera of uninfected people, Bolivia
# Procedure: as §1
# [9] = system: pooled sera of uninfected people, Brazil
# Procedure: as §1
# [10] = system: pooled sera of uninfected people, Colombia
# Procedure: as §1
# [11] = system: pooled sera of uninfected people, Mexico
# Procedure: as §1
# [12] = system: pooled sera of uninfected people, USA
# Procedure: as §1
Sequence,antibody binding signal [1],antibody binding signal [2],antibody binding signal [3],antibody binding signal [4],antibody binding signal [5],antibody binding signal [6],antibody binding signal [7],antibody binding signal [8],antibody binding signal [9],antibody binding signal [10],antibody binding signal [11],antibody binding signal [12]
KKAATGGTPSPSGAS,358,285,351,558,264,424,234,113,302,405,83.3,221
TPPSGTDNKPATGGT,28200,43900,49600,3790,13900,21900,1280,874,1360,416,1560,836
GTENKAAAGEAPSPP,37000,576,24000,798,1170,11600,140,264,108,103,80.2,97.5
GTDNKTAAGEAPSQP,5340,28900,41200,211,249,7340,165,513,1410,168,119,144
PSGTDNKTAAGGAPS,10500,3180,43500,5490,1600,808,320,668,2070,306,433,352
GKENKPAAGEAPSPS,6370,2480,23500,7770,8380,20400,619,310,195,131,279,99.7
KDKKTAAGEAPSPPG,176,236,285,274,194,4030,116,95.2,118,596,84.4,119
TPPSGTDNKAAAGET,28600,36300,45400,994,3370,9930,608,606,814,167,216,140
GKEKKTATGGAPSPS,3190,223,551,2850,1990,2070,238,126,118,85.4,140,98
KKTATGGTPSQSGAS,346,259,233,776,242,1110,359,113,158,135,381,249
GKENKPATGGAPSQP,3670,1040,24800,3670,6100,10900,839,944,143,121,230,142
KDKKPATGEAPSQSG,41300,20100,42000,135,171,30400,830,332,157,185,121,111
TPPSGKDKKAAAGGT,1990,548,413,941,38700,1180,137,613,1040,190,97.6,109
NKPAAGETPSPSGAS,309,758,17100,294,455,2210,365,745,657,290,201,1330
GKEKKTAAGETPSPP,1270,202,340,1950,1830,2540,115,98.6,82.8,185,96.4,138
GTDNKAATGGTPSPP,356,873,31300,403,551,205,222,556,1870,356,156,91.6
GKENKAAAGEAPSQS,6760,6660,22100,11900,7870,22200,371,134,101,107,116,95
TDNKAAAGGTPSPSG,312,233,250,3120,248,1200,94.9,312,1320,552,147,108
GTDKKAATGETPSQP,1820,1670,38100,2200,445,11500,417,296,308,520,312,201
PPSGTDKKAAAGGAP,9070,1680,23900,8340,33500,1360,486,251,188,428,1670,295
KDNKTAAGEAPSPPG,986,221,1680,1890,317,5550,448,171,185,240,110,141
GKENKPATGGAPSPP,4240,1570,5260,4950,5680,11900,658,858,128,114,141,147
NKAAAGETPSPPGAS,250,578,14400,326,210,791,475,1050,225,573,315,1650

Sequence,antibody binding signal [1],antibody binding signal [2],antibody binding signal [3],antibody binding signal [4],antibody binding signal [5],antibody binding signal [6],antibody binding signal [7],antibody binding signal [8],antibody binding signal [9],antibody binding signal [10],antibody binding signal [11],antibody binding signal [12]
KDKKAAAGEAPSPSG,161,268,281,215,207,6170,126,104,78.7,103,91.4,98.9
KDNKTAAGGTPSQPG,927,249,458,4060,216,1260,493,159,417,212,756,148
NKTATGGAPSQPGAS,677,645,7880,582,450,516,845,1080,398,391,427,1250
GTENKTAAGETPSPS,28700,621,732,1360,1240,3100,186,384,158,247,412,1720
GTDNKTATGETPSPS,528,1210,31100,320,224,7630,147,543,1300,166,430,2470
KDKKPAAGETPSPSG,189,221,445,160,182,903,113,100,105,81.4,83.9,605
TPPSGKDNKTAAGET,1440,2020,1850,1450,16200,2990,276,469,140,299,499,157
TPPSGKENKTATGGA,25600,1140,3690,669,3880,2670,2720,1040,188,573,263,286
ENKAATGGTPSQPGA,484,2240,12800,1660,440,1930,502,153,534,352,1180,162
SGTDNKTATGGAPSP,1150,723,39800,755,623,844,341,716,1400,238,242,313
GKDKKAAAGETPSPP,316,190,282,690,841,1160,114,87.7,89.2,81.3,81.5,110
TDKKPAAGGAPSQPG,642,506,9210,5370,338,494,160,795,498,125,161,234
EKKAAAGEAPSQSGA,3480,4950,9570,434,416,10200,138,1300,119,93.7,180,1020
DKKAATGETPSQPGA,4540,1790,36500,230,312,10800,542,554,409,643,304,282
SSTPPSGTDNKAAAG,47900,44300,51300,2430,23200,20000,1160,731,1780,165,257,365
ISTPPSGTEKKTATG,31500,13900,25700,475,11300,4840,746,316,145,111,191,134
NKAATGGTPSPSGAS,576,624,5780,404,496,378,636,824,761,787,171,1220
GTENKTAAGEAPSPS,28100,1490,1720,1150,1470,8130,210,299,187,261,138,117
NKPATGGAPSQSGAS,866,1410,7840,214,668,1580,667,1630,281,318,471,1120
SGKEKKPATGGAPSP,4470,863,5310,3080,3710,5100,293,596,87.5,117,97.7,235
KEKKPATGGAPSQPG,397,284,4840,306,320,784,240,204,84.5,95.7,76.9,324
DKKAATGGTPSPSGA,600,556,288,2620,600,1170,298,100,958,1110,85.1,178
GKEKKAATGEAPSQS,16300,4030,19400,6120,7420,19900,244,112,87.6,185,87.1,121
